The full ranking holds about 110,000 compounds; the median of “z-score” is about -0.1, and the highest 2% start at about 2. This is one part of the list.
Each compound was assayed against Metabotropic glutamate receptor 8 (Rattus norvegicus) (UniProt P70579) (assay: rat mGluR8 modulators via GIRK flux, primary screen, cell-based, thallium flux, HTS (AID 488969)). Conditions: HEK293 rat mGluR8, GIRK (G protein-gated inwardly rectifying potassium channel) thallium flux, FluoZin2; at 10 µM; stronger effect = higher value; submaximal glutamate (EC20) added with thallium.
Sequence of UniProt P70579 (P70579 whole entry, looked up): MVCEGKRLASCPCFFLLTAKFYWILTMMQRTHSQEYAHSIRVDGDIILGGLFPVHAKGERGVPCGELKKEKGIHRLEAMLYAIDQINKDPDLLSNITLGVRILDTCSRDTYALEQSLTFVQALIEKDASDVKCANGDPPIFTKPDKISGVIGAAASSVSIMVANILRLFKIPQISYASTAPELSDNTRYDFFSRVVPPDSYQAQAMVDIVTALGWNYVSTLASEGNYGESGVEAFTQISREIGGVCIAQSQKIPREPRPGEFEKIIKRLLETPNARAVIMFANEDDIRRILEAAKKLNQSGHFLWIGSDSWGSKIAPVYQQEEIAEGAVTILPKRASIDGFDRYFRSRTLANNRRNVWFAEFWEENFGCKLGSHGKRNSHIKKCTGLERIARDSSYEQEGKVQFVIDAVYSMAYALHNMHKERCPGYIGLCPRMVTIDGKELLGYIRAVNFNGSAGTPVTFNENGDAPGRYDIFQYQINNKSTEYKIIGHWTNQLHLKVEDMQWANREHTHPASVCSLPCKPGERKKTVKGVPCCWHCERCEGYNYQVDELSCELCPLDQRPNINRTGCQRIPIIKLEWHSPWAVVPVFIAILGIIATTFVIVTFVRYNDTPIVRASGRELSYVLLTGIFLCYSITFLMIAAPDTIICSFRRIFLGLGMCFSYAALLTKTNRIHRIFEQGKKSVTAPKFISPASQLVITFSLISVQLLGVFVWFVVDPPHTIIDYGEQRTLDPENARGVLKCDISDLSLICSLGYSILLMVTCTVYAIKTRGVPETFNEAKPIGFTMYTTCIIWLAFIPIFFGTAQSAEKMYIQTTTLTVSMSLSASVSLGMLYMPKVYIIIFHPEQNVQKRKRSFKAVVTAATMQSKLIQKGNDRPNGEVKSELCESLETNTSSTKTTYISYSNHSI
With `CC1CC(C)CN(C(=O)CSc2nc(Cc3cccs3)nc3ccccc23)C1` (centres undefined) the z-score was 0.118. `CC(C)CCNC(=O)c1ccc2c(c1)ncn2C1CCCCC1` was tested, and the z-score was -0.265. `COc1ccccc1CNC(=O)c1ccc(-c2ccccc2)cc1` showed a z-score of -0.243. `CC(C)(C)c1ccc(C(=O)N2CCC(C(=O)NCCC3=CCCCC3)CC2)cc1` showed a z-score of -0.146. `O=C(c1ccc(Br)o1)N1CCN(c2ccccc2F)CC1` showed a z-score of -0.193. With `CN1CCN(c2nc3c(c(=O)[nH]c(=O)n3C)n2CCOc2ccccc2)CC1` the z-score was -0.134. Compound `CCN1C(=O)c2cccc3c(S(=O)(=O)NCc4ccccn4)ccc1c23` has a z-score of -0.155. `CCOC(=O)c1c(C)[nH]c(C)c1C(=O)CN1C(=O)NC2(CCC(C)CC2)C1=O` (centres undefined) was tested, and the z-score was -0.119. For `COc1ccccc1NC(=O)CN(Cc1ccco1)C(=O)c1ccc(-n2nc(C)cc2C)cc1`, the z-score was -0.694. Work on `CN(CC(=O)Nc1cccnc1)S(=O)(=O)c1cc(Cl)ccc1Cl` yielded a z-score of -0.161. Compound `COc1ccccc1-c1nc2n(n1)C(c1cccs1)C(C(=O)Nc1cccnc1)=C(C)N2` (centres undefined) has a z-score of -0.0169. With `CCn1c(-c2ccc3ncccc3c2)n[nH]c1=S` the z-score was 0.0192. `Cc1nnc(SCC(=O)Nc2cc(C(C)(C)C)nn2-c2ccccc2)s1` showed a z-score of -0.346. `CCOc1ccc(N(CC(=O)NC2CCCC2)C(=O)CCCC(=O)Nc2ccccn2)cc1` gave a z-score of -0.391. Compound `CC1=C(C)CC(C(=O)Nc2ccc(C(N)=O)cc2)C(C(=O)O)C1` (centres undefined) has a z-score of -0.183. For `CC1(C)CC2CC(C)(CN2C(=O)CN2C(=O)c3ccccc3C2=O)C1` (centres undefined), the z-score was 0.018. `Cc1ccc(-n2c(=O)cc(N3CCC(C)CC3)[nH]c2=O)cc1` showed a z-score of 1.28. For `NC(=O)C1(NC(=O)[C@@H]2CC3(CC(c4cccc(NC(=O)[C@@H]5CCC(=O)N5)c4)=NO3)CN2C(=O)Cc2ccc(C(F)(F)F)cc2)CC1` (some centres undefined), the z-score was -0.279. Compound `Cc1cc(=O)[nH]c(SCC(=O)Nc2ccc(Br)cn2)n1` has a z-score of -0.346. In the case of `Cc1ccc(-c2ccc(/C=N/N3C(=O)C4C5C=CC(CC5)C4C3=O)o2)c([N+](=O)[O-])c1` (centres undefined), the z-score is reported as -0.413. Compound `CCOc1cc(CNCCc2ccc(S(N)(=O)=O)cc2)ccc1OCc1ccc(Cl)cc1` has a z-score of 0.202. In the case of `CCCc1cc(=O)[nH]c(SCC(=O)Nc2ccccc2C#N)n1`, the z-score is reported as -0.0832. With `CCN(CC)S(=O)(=O)c1ccc(C(=O)Nc2ncn(Cc3ccccc3)n2)cc1` the z-score was -0.302. With `CC1CCN(c2c(NCc3ccc(C(=O)NCC4COc5ccccc5O4)cc3)c(=O)c2=O)CC1` (centres undefined) the z-score was -0.0649. Compound `C=CCn1c(SCC(=O)/C(C#N)=C(\C)N)nc2sc(C)c(C)c2c1=O` has a z-score of -0.2. Compound `O=C1CN=C(Nc2cccc(C(F)(F)F)c2)N1C1CCCC1` has a z-score of -2.95. `O=C(COC(=O)CCC(NC(=O)OCc1ccccc1)C(=O)OCC(=O)Nc1ccccc1)Nc1ccccc1` (centres undefined) gave a z-score of -0.684. Compound `CC1(CC(=O)N/N=C/c2ccc(-c3ccc(C(=O)O)cc3)o2)OCCO1` has a z-score of -0.194. `CCc1nnc(NC(=O)c2cccc(C(=O)Nc3nnc(CC)s3)n2)s1` showed a z-score of -0.297. Compound `CCN1CCC(=NNC(=O)c2ccco2)CC1` has a z-score of 0.0387. For `COc1ccc(C(=O)Nc2nnc(Cc3cccs3)s2)cc1OC`, the z-score was 0.355. Work on `O=C(CSc1nc(-c2ccccc2F)nc2nc[nH]c12)Nc1c(Cl)cc(Cl)cc1Cl` yielded a z-score of -0.306. Work on `O=C(Cn1cnc2c(nnn2Cc2ccc(Cl)cc2)c1=O)OCc1ccccc1` yielded a z-score of 0.192. `O=C(Nc1nncs1)C1COc2ccccc2O1` (centres undefined) showed a z-score of 0.542. Compound `O=C1CN=C(Nc2ccccc2Cl)N1Cc1ccc2c(c1)OCO2` has a z-score of 0.308. `O=C(COC(=O)/C=C/c1cccc(Br)c1)NCCC1=CCCCC1` showed a z-score of -0.168. For `CCOCCn1c(SCC)nc2c1c(=O)[nH]c(=O)n2C`, the z-score was 0.044. For `CCOC(=O)c1[nH]c2ccccc2c1NC(=O)c1cc(OC)c(OC)c(OC)c1`, the z-score was -0.703. Work on `CCc1nc(N=Nc2c(O)[nH]c3ccccc23)c2c3c(sc2n1)CCC3` yielded a z-score of 0.157. `Cc1cc(C)nc(SC(C)C(=O)N/N=C/c2cccs2)n1` (centres undefined) gave a z-score of -0.168. With `O=C(CN1C(=O)COCC1=O)N1CCOCC1` the z-score was -0.249. With `CCOC(=O)c1c(C2COc3ccccc3O2)csc1N` (centres undefined) the z-score was 0.773. Work on `O=c1cc(CN2CCN(c3cccc(Cl)c3)CC2)c2cc3c(cc2o1)CCCC3` yielded a z-score of 0.0723. `O=C(CN1C(=O)NC2(CCCCC2)C1=O)NC1CCCc2ccccc21` (centres undefined) showed a z-score of 0.151. For `O=C(COC(=O)CSc1cc(Cl)ccc1Cl)Nc1ncc(C(F)(F)F)cc1Cl`, the z-score was -0.401. Compound `O=C(O)CCC(=O)Nc1ccc(Cc2ccc(NC(=O)CCC(=O)O)cc2)cc1` has a z-score of -0.0822. With `CCCOc1ccc(/C(O)=C2/C(=O)C(=O)N(CCN(C)C)C2c2ccco2)cc1` (centres undefined) the z-score was 0.155. In the case of `CCCCNC(=O)c1ccccc1C(=O)NCCCC`, the z-score is reported as 0.0704. Compound `Cn1c(CO)cnc1SCc1c(Cl)cccc1Cl` has a z-score of -0.162. `Cc1ccc(C(=O)N/C(=C/c2cccc([N+](=O)[O-])c2)C(=O)NC(C)C)cc1` showed a z-score of -0.0623. Work on `O=C(NC1CCCCC1)N(CCN1CCOCC1)Cc1cc2cc3c(cc2[nH]c1=O)OCCO3` yielded a z-score of 0.234. `CC(=O)N1CCN(S(=O)(=O)c2ccccc2)C1c1ccccc1` (centres undefined) showed a z-score of -0.0911. `COc1ccc(CCNC(=O)C2CCCN(S(=O)(=O)c3cnc[nH]3)C2)cc1OC` (centres undefined) was tested, and the z-score was -0.0112. `Cc1cccc(C)c1N(CC(O)Cn1c2ccccc2c2ccccc21)S(C)(=O)=O` (centres undefined) was tested, and the z-score was 0.299. `Cc1nc2ccccc2n1C(=O)c1ccccc1[N+](=O)[O-]` was tested, and the z-score was -0.0492. In the case of `CO/N=C(/CS(=O)Cc1ccc(Cl)cc1)c1ccc(Cl)cc1` (centres undefined), the z-score is reported as -0.107. `Cn1c(=O)[nH]c(=O)c2c1nc(N1CCCCCC1)n2CCCSc1nc2ccccc2o1` showed a z-score of 0.604. `CCOC(=O)/C=C1\SCC(=O)N1CC(=O)NC(C)c1ccccc1` (centres undefined) was tested, and the z-score was -0.283. `Cc1c(=O)n(OCc2ccccn2)c2ccccc2[n+]1[O-]` showed a z-score of 0.399. Compound `CCOC(=O)Nc1ccc2c(c1)nc(CN1CCN(C(C)=O)CC1)n2C` has a z-score of 0.359. In the case of `O=C1CC(c2cccc(Cl)c2)Cc2nc(N3CCN(c4ccccc4)CC3)ncc21` (centres undefined), the z-score is reported as 0.343. `O=C(Nc1nnc(SCC(=O)N2CCCCC2)s1)C1CCCCC1` showed a z-score of 0.434. `Cc1ccccc1NC(=O)CC1S/C(=N/c2nccs2)N(C)C1=O` (centres undefined) gave a z-score of 0.142. `COc1ccccc1NC(=O)Cn1cnc2c1c(=O)n(C)c(=O)n2C` gave a z-score of -0.525. `CCN1CCCC1CNC(=O)c1c(O)c2c([nH]c1=O)CCCC2` (centres undefined) gave a z-score of -0.0826. For `O=C(COC(=O)c1ccccc1OCC(=O)Nc1ccc(Br)cc1)Nc1ccccc1`, the z-score was 0.19. Work on `O=C(CC1=NC2(CCCC2)Cc2ccccc21)N1CCOCC1` yielded a z-score of -0.129. `CC(C)(C)CC(=O)N1CCC(c2nc3c(nnn3Cc3c(F)cccc3Cl)c(=O)[nH]2)CC1` showed a z-score of -0.92. Compound `COc1nc(NCc2ccco2)nc(NC2CCCCC2)n1` has a z-score of -0.224. For `N#Cc1c(NC(=O)CN2CCN(S(=O)(=O)c3ccc4c(c3)OCCO4)CC2)sc2c1CCC2`, the z-score was -0.773. Compound `O=C(NCc1cccnc1)c1cccn2c(=O)c3sccc3nc12` has a z-score of -0.0801. With `Cc1ccc(OCc2nnc(SCC(=O)O)n2N)cc1` the z-score was -0.00866. `CCCc1nc2ccccc2c(=O)n1NC(=O)c1c(O)c2cccc3c2n(c1=O)CCC3` gave a z-score of 0.201. For `CC1(C)CC(=O)C(CC(=O)Nc2ccc(S(N)(=O)=O)cc2)=C(O)C1`, the z-score was 0.127. Work on `CN1CCC2(CC1)N=C(c1ccc(F)cc1)C(=S)N2C(=O)c1ccc(C(C)(C)C)cc1` yielded a z-score of -0.387. `CN1CCC(OC(=O)C23CCC(C)(C(=O)O2)C3(C)C)CC1` (centres undefined) showed a z-score of 0.0368. `CNC(=O)/C(C#N)=C/c1c(N(Cc2ccccc2)Cc2ccccc2)nc2ccccn2c1=O` showed a z-score of -0.323. `COc1ccccc1NS(=O)(=O)c1cccc(C(=O)OCc2nc3ccccc3s2)c1` showed a z-score of -0.205. `CC(=O)c1ccc(NC(=S)NNC(=O)c2ccncc2)cc1` was tested, and the z-score was -0.0973. `COc1ccc(/C=N/NC(=O)c2nc(-c3ccccc3)n(-c3ccccc3)n2)cc1OC` gave a z-score of -0.197. For `CC(=O)c1cnc2cc(C)nn2c1C`, the z-score was 0.362. `NS(=O)(=O)c1ccc(N2N=C(c3ccccc3)CC2c2ccccc2)cc1` (centres undefined) was tested, and the z-score was -0.262. Work on `O=C(CSc1nnc(-c2ccccc2)o1)NC1CCCCC1` yielded a z-score of 0.0366. `O=C(NC1CCCCC1)C1Cc2ccccc2CN1S(=O)(=O)c1ccc(F)cc1` (centres undefined) showed a z-score of -0.922. `CCOC(=O)COc1ccc(/C=C/[N+](=O)[O-])c(OCC(=O)OCC)c1` showed a z-score of -0.38. With `CCC(C)(C)C1CCc2nc3ccccc3c(C(=O)OC(C)C(=O)Nc3c(C)n(C)n(-c4ccccc4)c3=O)c2C1` (centres undefined) the z-score was -0.36. `COC(=O)Nc1cc([N+](=O)[O-])ccc1OC` was tested, and the z-score was -0.411. Compound `Cc1ccc(-c2csc3nnc(SCC(=O)Nc4nsc(-c5ccccc5)n4)n23)cc1` has a z-score of -0.355. `O=C1/C(=C\c2cccs2)Sc2ccc3ccccc3c21` gave a z-score of -0.447. For `COC(=O)c1ccc(NC(=O)C2CCN(C(=O)c3cc(OC)c(OC)c(OC)c3)CC2)cc1`, the z-score was 0.0856. Compound `CCCn1c(=S)[nH]c2cc(C(=O)N3CCN(c4ccccc4OC)CC3)ccc2c1=O` has a z-score of 0.596. `COc1ccc(/C=N/Nc2nc(-c3cccc(S(=O)(=O)N4CCCC4)c3)cs2)c(OC)c1` was tested, and the z-score was -0.38. `COc1ccc(/C=C/C(=O)c2ccoc2)cc1` was tested, and the z-score was -0.4. `Cc1cc(NC(=O)CCN2C(=O)C3C4CCC(C4)C3C2=O)c(C)cc1Br` (centres undefined) showed a z-score of 1.14. Work on `Cc1cccc(/C=C/c2nc3ccccc3c(=O)n2Cc2ccccc2)c1` yielded a z-score of -0.0988. In the case of `Cc1ccccc1-n1c(SCC(=O)c2cc(C)n(C)c2C)nnc1-c1cccnc1`, the z-score is reported as -1.19. With `COCCn1c(SCC(=O)Nc2ccc(S(N)(=O)=O)cc2)nc2ccccc21` the z-score was -0.086. In the case of `CC(=O)c1ccc2c(ccc3ccccc32)c1`, the z-score is reported as -0.153. `COc1ccc(C(=O)N2CCC(C(=O)c3ccc(F)cc3)CC2)cc1` gave a z-score of -1.67. `O=C(CN(Cc1cccs1)C(=O)CNS(=O)(=O)c1ccc(F)cc1)NCc1ccco1` gave a z-score of -0.317. Compound `CCCc1sc(N/N=C/c2ccccn2)nc1-c1ccc(F)cc1` has a z-score of 1.53. In the case of `CCOC(=O)c1[nH]nc(-c2cc(CC)c(O)cc2O)c1-c1cscn1`, the z-score is reported as -0.167. `Cc1csc2ncc(C(=O)N(Cc3ccccc3)c3ccccn3)c(=O)n12` was tested, and the z-score was -0.103. `CCCCCCOC(=O)CCc1c(C)nc(N)[nH]c1=O` gave a z-score of -0.0673.
